By % Inhibition is commonly meant the relative decrease from the control value, in per cent.

The structures appear in SMILES notation. Screen size: about 150,000 compounds; about 540 (0.36%) showed an effect of 50% or more. This is one part of the list.

For this assay, the system named is Plasmodium falciparum. The experiment in a line: Primary screen in NF54 nanoGlo assay, in single point, at 2uM, 72h; a lower Z score goes with more inhibition. The conditions noted are these: timepoint 72 hour. The assay is classed as functional, Erythrocyte.
As for `Cc1ccc(-c2cc(C(=O)NC3CCCCC3)n(-c3ccc(Cl)c(Cl)c3)n2)cc1C`, the “% Inhibition” value was -8% and the Z score is 1.13.
Taken in the same sequence, the figures for `COc1cncc(NC(=O)N[C@@H]2CCC[C@@H]2Oc2cnn(C)c2)c1` were -7% and 1.38.
Consider `Cc1cc(C)n(CCCNc2nc(C)ns2)n1`, for which the “% Inhibition” value is recorded as -13% and the Z score came to 1.79.
For `COCc1cc(C)nc(N2CCc3ccccc32)c1C#N`, the “% Inhibition” value was -6% and the Z score came to 0.81.
Consider `CCCC[C@@H](C(=O)Nc1cc(C)on1)n1cnc2c1c(=O)n(C)c(=O)n2C`, for which the “% Inhibition” value is recorded as -9% and the Z score is listed as 1.5.
In the same order, the values of `COc1ccc(CN[C@H]2[C@H](O)[C@@H](n3cc(Cl)cn3)[C@@H]3OC[C@H]2O3)cc1` are -4% and 0.6.
On to `COC[C@H]1CN(C(=O)c2sccc2C)CC12CCOCC2`, for which the “% Inhibition” value turned out to be 9% and the Z score is on record as -1.64.
With `CO[C@H]1CN(C(=O)Cc2cc(C)ccc2C)C[C@@H]1O`, the “% Inhibition” value came out at 2% and the Z score was -0.35.
Consider `Cc1nc(CC(=O)NCCc2c[nH]cn2)cs1`, for which the “% Inhibition” value is reported as -1% and the Z score stood at 0.12.
Regarding `CC(C)c1ccc([C@@H](C)CC(=O)Nc2ccn(C)c(=O)n2)cc1`, the “% Inhibition” value is recorded as 11% and the Z score is reported as -1.25.
`O=C1NC(C2CCOCC2)C(=O)N1CC1CC=CCC1` (centres undefined): the “% Inhibition” value is listed as -1% and the Z score is given as 0.08.
For the compound `Cc1cc(C)c2c(c1)CN(C(=O)C[C@@H](O)CC(C)(C)C)CC2`, the “% Inhibition” value is -4% and the Z score came to 0.48.
With `CC(C)[C@H](NC(=O)Cn1cnc2ccccc2c1=O)c1nc2ccccc2n1C(C)C`, the “% Inhibition” value is recorded as -14% and the Z score came to 1.81.
As for `O[C@H]1CCCN(C2CCN(Cc3c(Cl)cncc3Cl)CC2)C1`, the “% Inhibition” value is on record as 8% and the Z score is -1.65.
`CC1CCC(NC(=O)C(c2ccccc2)c2ccccc2)CC1` (centres undefined): the “% Inhibition” value stood at 46% and the Z score is -1.74.
In the case of `CO[C@@H](C)CS(=O)(=O)NC1CCC(F)(F)CC1`, the “% Inhibition” value is 5% and the Z score was -0.64.
On to `CN(C)c1cccc(C(=O)N/C(=N/c2ccc(F)cc2)NCCN2CCOCC2)c1`, for which the “% Inhibition” value was -11% and the Z score is given as 1.01.
For `CC(C)NC(=O)CNc1cncc(Br)c1`, the “% Inhibition” value is reported as -10% and the Z score was found to be 1.6.
Regarding `CCn1cccc1-c1nc(C)c(C(=O)Nc2ccc(C)c(C)c2)s1`, the “% Inhibition” value is reported as 11% and the Z score is given as -1.73.
For `COCCC1(CNC(=O)N[C@@H](C)c2nccs2)CCCC1`, the “% Inhibition” value is -5% and the Z score is 0.72.
Take `CC1=CC[C@H]2CN(C(=O)c3ccccc3N3CCC(=O)NC3=O)C[C@H]2C1`: the “% Inhibition” value is recorded as -5% and the Z score is 1.
As to `Cc1noc(CCCNC(=O)[C@H]2CCc3[nH]cnc3C2)n1`, the “% Inhibition” value is on record as -9% and the Z score is 1.57.
Take `O=S(=O)(N[C@H]1CCCc2ccccc21)c1cnn2c1OCCC2`: the “% Inhibition” value was -10% and the Z score is recorded as 1.49.
Taken in the same sequence, the figures for `CCc1cc(-c2ccc(C(=O)N3C[C@@H](C)O[C@@H](C)C3)cc2)nc(N(C)C)n1` were -8% and 1.56.
In the case of `CC(C)NC(=O)CCCc1ccccc1`, the “% Inhibition” value was -11% and the Z score came out at 1.49.
Taken in the same sequence, the figures for `O=C(Cc1c[nH]c2ccccc12)Nc1ccc2nc(N3CCCC3)sc2c1` were 0% and 0.07.
In the case of `CCc1ccc(F)cc1C(=O)N[C@@H](CC1CC1)C(=O)O`, the “% Inhibition” value is reported as 2% and the Z score is listed as -0.34.
`COc1ccc(Cl)cc1NC(=O)COC(=O)CCS(=O)(=O)c1ccc2ccccc2c1`: the “% Inhibition” value came to 7% and the Z score is -0.84.
In the same order, the values of `Cc1ccsc1-c1nnc(CC(=O)NCc2ccc(F)cc2)o1` are 10% and -0.96.
For `O=C(c1ncoc1-c1cccs1)N1CCOC[C@H]1C1CC1`, the “% Inhibition” value is listed as -4% and the Z score stood at 0.51.
Turning to `COCC(=O)Nc1cc(C(=O)O)c2c(c1)nc(C1CCC1)n2C`, the “% Inhibition” value was found to be 0% and the Z score is -0.08.
Regarding `CC(NC(CC1CCC1)c1ccccc1)c1cn(C)cn1` (centres undefined), the “% Inhibition” value is listed as 6% and the Z score was -1.14.
Consider `CC(C)C(=O)N[C@@H](C)c1ccc(Br)cc1OCCCO`, for which the “% Inhibition” value is 28% and the Z score is listed as -2.85.
For the compound `COc1ccc(-c2noc(-c3ccc(N4CCCCC4)nn3)n2)cc1`, the “% Inhibition” value was -7% and the Z score is listed as 0.8.
For the compound `O=C(COc1ccccc1)N1CC(n2cnnc2C2CCOCC2)C1`, the “% Inhibition” value is on record as -9% and the Z score stood at 1.66.
Turning to `Cn1nnc2ccc(-c3noc(CNC(=O)c4cccs4)n3)cc21`, the “% Inhibition” value came out at 0% and the Z score is reported as -0.08.
In the same order, the values of `Cc1ccc(C(=C2C3C=CC2C2C(=O)NC(=O)C32)c2ccc(C)cc2)cc1` (centres undefined) are -1% and 0.16.
Consider `O=C(Nc1ccccc1-c1ccc(=O)[nH]n1)C1CCN(c2ccc(-n3cccn3)nn2)CC1`, for which the “% Inhibition” value is recorded as -20% and the Z score came to 2.5.
In the case of `O=C(O)c1cc2cc(-c3ccccc3)cc3c2n(c1=O)CCC3`, the “% Inhibition” value is 1% and the Z score is on record as -0.1.
`CCc1nn(-c2ccccc2)c2c1CN(C(=O)Nc1cccc(OC)c1)[C@H](c1cccc(C)c1)c1cccn1-2`: the “% Inhibition” value is -11% and the Z score amounted to 2.02.
For `c1ccc2[nH]c(-c3cccc4nonc34)nc2c1`, the “% Inhibition” value is -7% and the Z score was determined as 1.3.
Consider `CN(Cc1cnc(NC[C@H]2CCCO2)nc1)Cc1nccs1`, for which the “% Inhibition” value is reported as -9% and the Z score was 1.33.

For the origin of these results see ChEMBL document CHEMBL4888484, “Replenishing the malaria drug discovery pipeline: Screening and hit evaluation of the MMV Hit Generation Library 1 (HGL1) against asexual blood stage Plasmodium falciparum ,using a nano luciferase reporter read-out” (2022).
